Data reported in PubChem BioAssay AID1457 (National Center for Advancing Translational Sciences (NCATS), 2008).
About 730 (0.35%) of roughly 210,000 compounds were called active. The inconclusive results got no clear call from the source; some entries with a clear call stand among them for comparison. Calls come from the whole dose curve; as a rule, active = well fitted inhibition curve with a large enough effect; inconclusive = small, poorly fitted or top-dose-only effect; inactive = no such curve, though single readings can be large or run the other way. Where the call is inconclusive, the potency comes from a doubtful curve fit.

Test: qHTS Assay for Identifying the Cell-Membrane Permeable IMPase Inhibitors: Potentiation with Lithium; note: nearly all actives have a fitted effect of over 50% in size
Details: CHO-M1 cells, IP1 TR-FRET (IP-One), carbachol + lithium; series mostly up to 59.4 µM
Outline: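 Test compounds were applied to CHO-M1 cells previously cultured for 16–30 h at 2000 per well. A small lithium amount accompanied them; after 30 min at 37C, IP1 was quantified by TR-FRET.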
Potency is the fitted concentration of half-maximal effect.

Potency, inactive:
CC(/C=N\NC(=O)CN1CCN(Cc2ccccc2)CC1)=C\c1ccco1, N[C@@]1(C(=O)O)CN[C@@H](C(=O)O)C1, O=C(c1ccc(CNc2c(N3CCCC3)c(=O)c2=O)cc1)N1CCc2ccccc2C1, C=CC[C@H]1CC(Cc2ccccc2)=C[C@H](CC=C)N1

Potency, active:
N#Cc1c(N)nc(SCC(=O)NC2CCCCC2)c(C#N)c1-c1ccc(Cl)cc1 15.8 µM

Potency, inconclusive:
CCn1ccnc1CN(C)Cc1cn(-c2cc(C)ccc2C)nc1-c1ccccc1 28.2 µM [inhibitor, single point], COc1ccc2cc(C)c(SCC(=O)Nc3cc(C)on3)nc2c1 11.2 µM [inhibitor, single point], COc1ccc(Cn2c(N)c(S(=O)(=O)c3cccs3)c3nc4ccccc4nc32)cc1 31.6 µM [inhibitor, single point], COc1cc(N)c(Cl)cc1C(=O)CCC1CCN(CCNS(C)(=O)=O)CC1 31.6 µM [inhibitor, single point], COc1cc(/C=C(\C#N)c2ccccn2)ccc1OCC(=O)Nc1ccc(Br)cc1 28.2 µM [inhibitor, single point], O=C(Nc1ncc(Cc2ccc(SC(F)F)cc2)s1)c1ccc(OC(F)F)cc1 28.2 µM [inhibitor, single point], Cc1ccc(-c2cc(C(=O)N(C)Cc3cnn(C)c3C)c3cc(Br)ccc3n2)cc1 12.6 µM [inhibitor, single point], CCC(C)NC(=O)Cn1c(=O)n(-c2ccc(OC)cc2)c(=O)c2ccc(C(=O)NCc3ccc(C)cc3)cc21 (stereo not drawn) 25.1 µM [inhibitor, single point], COc1ccc(C(=O)NNC(=O)C(Cc2ccc(O)cc2)NC(=O)c2ccccc2NC(=O)c2ccc(OC)cc2)cc1 (stereo not drawn) 22.4 µM [inhibitor, single point], CCCOc1cccc(-c2nnc(N)s2)c1 0.708 µM [inhibitor, full curve], CCN(CC)Cc1c(O)ccc2c(=O)c(Oc3ccccc3OC)coc12 8.91 µM [inhibitor, partial curve], O=C(N/C(=C/C=C/c1ccccc1)C(=O)N1CCOCC1)c1ccccc1Cl 5.01 µM [inhibitor, single point], Cc1cccc(N2C(S)=C(C#N)C(=O)NC2c2ccco2)c1 (stereo not drawn) 12.6 µM [inhibitor, partial curve]
